The campaign covered roughly 45,000 compounds. About 65 (0.1%) were called active. The call rests on the fitted dose curve; in most records, active means well fitted activation curve with a large enough effect; inconclusive means small, poorly fitted or top-dose-only effect; inactive means no such curve, though single readings can be large or run the other way. Some of the results follow.
target: Galactocerebrosidase (Homo sapiens) (UniProt P54803); test: A Novel Cell-Based Assay to Identify Small Molecules for B -Galactocerebrosidase; details: 145M-Twi-hGALC-G270D cells (Twitcher mouse brain line with human GALC G270D), HMU-beta-Gal fluorescence, 48 h; series mostly up to 57.5 µM; activation: at the top concentration; further: 0% is about no effect; nearly all actives have a fitted effect of over 65% in size
UniProt P54803, sequence (P54803 whole entry, looked up): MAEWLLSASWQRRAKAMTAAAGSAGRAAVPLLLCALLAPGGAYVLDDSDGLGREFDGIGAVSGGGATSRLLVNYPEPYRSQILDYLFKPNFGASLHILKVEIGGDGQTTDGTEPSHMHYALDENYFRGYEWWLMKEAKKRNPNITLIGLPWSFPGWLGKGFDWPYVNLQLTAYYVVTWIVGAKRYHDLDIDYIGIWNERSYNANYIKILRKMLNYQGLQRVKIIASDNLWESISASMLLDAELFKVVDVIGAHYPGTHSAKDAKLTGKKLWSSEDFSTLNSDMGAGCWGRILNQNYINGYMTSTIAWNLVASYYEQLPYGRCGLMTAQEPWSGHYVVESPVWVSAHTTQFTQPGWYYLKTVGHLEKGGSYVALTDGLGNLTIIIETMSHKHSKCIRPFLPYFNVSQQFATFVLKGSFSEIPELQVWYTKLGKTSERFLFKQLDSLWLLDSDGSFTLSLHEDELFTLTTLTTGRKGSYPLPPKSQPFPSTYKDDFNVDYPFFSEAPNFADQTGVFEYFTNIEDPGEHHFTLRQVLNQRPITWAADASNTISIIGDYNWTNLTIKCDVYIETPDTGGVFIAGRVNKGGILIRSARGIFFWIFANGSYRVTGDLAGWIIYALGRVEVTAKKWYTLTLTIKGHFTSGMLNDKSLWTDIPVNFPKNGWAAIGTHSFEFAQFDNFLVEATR
Procedure, shortened: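 Fluorogenic HMU-b-Gal hydrolysis (0.1 mM final, pH 5.2 citrate-phosphate with 1 mg/mL sodium taurocholate; carbonate stop buffer) measures mutant GALC activity after compound treatment of live 145M-Twi Twitcher brain cells stably carrying human GALC-G270D, with wild-type GALC line alongside; activation sought.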

activation, inactive:
O=C(CSc1nc2c([nH]c3ccccc32)c(=O)n1-c1cccc(Cl)c1)N1CCCC1 -1.88%
Clc1ccc(CSc2ccc(-c3cccs3)nn2)cc1 8.92%
COc1ccc(C(=O)NCCSc2c[nH]c3ccccc23)cc1OC -14%
COc1ccc(-n2c(=O)c3c4c(sc3n(Cc3ccc(F)cc3)c2=O)CN(C(C)=O)CC4)c(OC)c1 -20.7%
CSc1ncc(C(=O)Nc2cc(C)cc(C)c2)c(-c2ccccc2)n1 4.44%
CCC(CC)C(=O)N1c2ccccc2C(C)(c2ccccc2)CC1(C)C (stereo unspecified) -4.78%
CCc1ccc2oc(-c3ccc(C)c(NC(=O)c4cc([N+](=O)[O-])ccc4N4CCOCC4)c3)nc2c1 -10.9%
CCCCc1ccc(-n2nc3ccc(NC(=O)c4cc5ccccc5o4)cc3n2)cc1 -1.65%
CCOC(=O)Cn1c(=O)oc2cc(S(=O)(=O)N3CCN(c4cccc(Cl)c4)CC3)ccc21 -20.6%
CCOCCCn1c(SCC(=O)Nc2ccccc2CC)nc2ccccc2c1=O -21.8%
Nc1ccc(C(=O)N2CC3CC(CN(Cc4ccccc4)C3)C2)cc1 -8.59%
O=C(O)c1sc(Nc2ccccc2)nc1-c1ccccc1 -0.272%
CC(=O)N1CCc2c(sc3c2c(=O)n(Cc2ccccc2)c(=O)n3Cc2ccc(Cl)cc2)C1 -9.08%
CN1CCN(C(CNC(=O)c2ccc(F)cc2)c2ccc3c(c2)OCO3)CC1 (stereo unspecified) -4.16%
COc1ccc(OC)c(CCNC(=O)c2c(C)oc3ncn(CC(C)C)c(=O)c23)c1 -13.1%
Cc1cc(C)c(Cn2c(=O)n(CCC(=O)NCCc3ccccc3)c(=O)c3ccccc32)c(C)c1 -11.1%
CCN(CC)c1ccc(C(=O)N2CCc3c([nH]c4ccccc34)C2c2ccc(F)cc2)cc1 (stereo unspecified) -4.86%
Cc1ccc(NC(=O)c2cccc3c(=O)c4c([nH]c23)CCCC4)c(C)c1 -6.9%
COc1cccc(CNC(=O)c2c(C)nn(-c3ccc(F)cc3)c2-n2cccc2)c1 -36.1%
Cc1ccc(NC(=O)Nc2nnc(SCC(=O)N(C(C)C)C(C)C)s2)cc1 -12.7%
CCOC(=O)c1sc2ccccc2c1S(=O)(=O)Nc1ccc(OC)c(Cl)c1 -11.1%
CCOc1ccc(NC(=O)Nc2nnc(N3CCCCC3C)s2)cc1 (stereo unspecified) -6.53%
CC(=O)c1ccc(NC(=O)Cn2c(=O)cc(C)c3c(C)nn(-c4cccc(F)c4)c32)cc1 -1.26%
CCC(Oc1ccccc1)C(=O)Nc1cccc(OCc2cc(=O)n3cccc(C)c3n2)c1 (stereo unspecified) 10.1%
CCOC(=O)c1cccc(NC(=O)CCn2c(=O)oc3ccccc32)c1 -14.2%
Cc1c(C)c2c(cc(C)c3c(-c4ccc(Br)cc4)coc32)oc1=O -17.1%
Cc1ccc(CSc2nnc([C@@H](N)C(C)C)o2)cc1 -19.4%
Cc1cccc(-c2nc3c4c(-c5ccccc5)c(-c5ccccc5)oc4ncn3n2)c1 -16.7%
CCN(CC)c1ccc(C(=O)NCc2nc3cccnc3n2Cc2ccc(C)cc2)cc1 -5.84%
Cc1ccc(C2N=C(N)Nc3nc4ccccc4n32)cc1 (stereo unspecified) -3.39%
Cc1cccc(NC(=O)Cn2cc(S(=O)(=O)N3CCCC3)c(S(=O)(=O)N3CCCC3)c2)c1C -0.391%
CCC1CCc2nc3sc(C(=O)Nc4cccc(F)c4)c(N)c3cc2C1 (stereo unspecified) -17.1%
CCOC(=O)c1c(C)[nH]c(C)c1S(=O)(=O)NCC(=O)Nc1cccc(SC)c1 -20.6%
COc1cccc(NC(=O)CSc2nc(C)c(Cc3ccccc3)c(=O)[nH]2)c1 -8.51%
O=C(NCC(c1cccnc1)N1CCN(c2ccccc2F)CC1)c1ccc(F)cc1 (stereo unspecified) -7.13%
COc1ccc(NC(=O)c2c(NCc3cccc(F)c3)sc3c2CCC3)c(OC)c1 -9.28%
Cc1cccc(NC(=O)c2cnc3sc(N4CCCC4)nn3c2=O)c1C -7.66%
CSCCC(NS(=O)(=O)c1ccc2c(c1)oc(=O)n2C)C(=O)Nc1ccc(F)c(Cl)c1 (stereo unspecified) -17.3%
Cc1nn(C)c(C)c1S(=O)(=O)N(CC(=O)NCCc1ccc(Cl)cc1)c1ccc(C(C)C)cc1 -14.7%
COc1cccc2sc(N(Cc3cccnc3)C(=O)c3ccco3)nc12 -5.82%
COc1ccc(OC)c(CNC(=O)c2c(C)oc3ncn(CC(C)C)c(=O)c23)c1 -14.5%
CCCCOc1ccc(C2=NC(c3cccs3)=Nc3ccc(OC)cc3N2)cc1 -14.4%
Cc1ccccc1C(=O)Nc1ccc(S(=O)(=O)N2CCC(c3nc4ccccc4s3)CC2)cc1 -11%
COc1cc2c(cc1OC)C(=O)CC2 -8.19%
Cc1cc(C)cc(NC(=O)Cc2csc(COc3cccc(C)c3)n2)c1 -0.417%
COc1ccc(C)cc1NC(=O)C(=O)NCCc1sc(-c2cccc(C)c2)nc1C -17.3%
Cc1nn(CCCC(=O)NCc2ccccc2Br)c(=O)c2c1sc1ccccc12 0.836%
CCOc1ccc(S(=O)(=O)N(CC(=O)Nc2ccc(OC)cc2OC)c2ccccc2)cc1 -5.46%
O=C(NCc1ccccc1F)C1CCCN(C(=O)N2CCOc3ccccc32)C1 (stereo unspecified) -18.8%
O=C(CN1C=NS(=O)(=O)c2ccccc21)Nc1ccccc1F -10.5%
CCOC(=O)c1ccc(NC(=O)CCCc2nc(-c3cc(OC)c(OC)c(OC)c3)no2)cc1 -17.7%
CCCNC(=O)C1CCC(Cn2c(=O)c3sccc3n(CC(=O)NCc3ccccc3)c2=O)CC1 (stereo unspecified) -8.93%
COc1ccc(Br)cc1CNC(=O)c1cc(=O)[nH]c2ccc(S(=O)(=O)N3CCCCC3C)cc12 (stereo unspecified) 3.95%
Cc1nn(C(C)C(=O)N2CCN(c3ccc(F)cc3)CC2)c(=O)c2c1sc1ccccc12 (stereo unspecified) 0.178%
CCn1cc(C(=O)NCCc2ccccc2)c(=O)c2cc(S(=O)(=O)N3CCCCCC3)ccc21 -2.16%
COc1ccc(N2C(=O)CS(=O)(=O)C23C(=O)N(Cc2ccccc2F)c2ccccc23)cc1Cl (stereo unspecified) -20.3%
COc1ccc(-c2nc3ccccc3o2)cc1NC(=O)COc1ccc(C)c(C)c1 -2.21%
COc1ccc(OC)c(CNS(=O)(=O)c2ccc3c(c2)oc(=O)n3C)c1 -8.47%
COc1ccc(S(=O)(=O)N(CC(=O)N2CCc3ccccc3C2)c2ccc(C)cc2)cc1 -6.45%
CCOc1ccc(C(=O)Nc2cccc(C(=O)OCc3cc(=O)n4cc(C)sc4n3)c2)cc1 -4.95%
Cc1cccc2nc(Cn3c(=O)n(-c4ccc(Cl)cc4)c(=O)c4c5c(sc43)CCC5)cc(=O)n12 0.0475%
